From the supplement of paper PMC3334620
The full ranking holds about 33,000 sequences; the median of “E-score (-0.5 to 0.5)” is about -0.056, and the highest 2% start at about 0.38. The list shows a part of the results.

Biological target: Stb4 (UniProt P50104)
Assay: PBM E-score (8-mer binding enrichment) (E-score (-0.5 to 0.5)); higher = stronger / more preferred TF binding; most listed sequences are background and not binding sites
Settings: protein concentration: 200 nM; construct: GST-DNA-binding domain
Procedure, shortened: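 Yeast transcription factors carrying a GST tag, as full-length proteins or DNA-binding domains, were produced by PURExpress in vitro transcription/translation. About 100-200 nM protein was applied to universal all-10-mer Agilent arrays, double-stranded by primer extension on fresh or once-stripped slides. Bound protein was detected with fluorescent anti-GST, and scans were normalised with masliner. The Universal PBM Analysis Suite gave each ungapped eight-base word, pooled with its reverse complement, an E-score, a modified Wilcoxon-Mann-Whitney statistic.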

Going from GACTCGGC to GAATAGTC, the “PBM E-score” value falls from 0.327 to -0.0418.

Going from TATCCCCA to TCCACGAA, the “PBM E-score” value falls from -0.185 to -0.227.

Going from GACATTAA to CCCCACGA, the “PBM E-score” value falls from 0.0594 to -0.255.

Going from CATGAGGA to CGACTTGC, the “PBM E-score” value rises from -0.114 to -0.00118.

Going from TACAGCTA to ACGCAAAT, the “PBM E-score” value rises from -0.168 to -0.00753.

Compared with CGTGAAAC, GTGAGGAA is higher in “PBM E-score” value: -0.192 for the first, -0.164 for the second.

First: ACAATGAT
Second: AACGATGC
The “PBM E-score” value of the first is higher: -0.13 for the first, -0.219 for the second.

Compared with ATGTTGAA, AGTTTCAA is lower in “PBM E-score” value: -0.0897 for the first, -0.116 for the second.

Compared with CTCAATGC, AAACGAGT is higher in “PBM E-score” value: -0.196 for the first, -0.0975 for the second.

First: AGCTCCTC
Second: CCGTGCCC
The “PBM E-score” value of the first is lower: -0.243 for the first, 0.132 for the second.

Compared with CTTACCAC, GAGGAATC is higher in “PBM E-score” value: -0.217 for the first, -0.07 for the second.

Going from AATACAAC to AATAACCA, the “PBM E-score” value falls from -0.0229 to -0.192.

Going from ATGATTAC to AGCCAGTA, the “PBM E-score” value falls from -0.107 to -0.156.

Compared with AAATAAAA, ACATTCAG is higher in “PBM E-score” value: -0.136 for the first, -0.0679 for the second.

Compared with TAGATATA, TCGGGCAA is higher in “PBM E-score” value: 0.0454 for the first, 0.259 for the second.

Going from GTTGCGAA to GTCGGTAA, the “PBM E-score” value rises from -0.0168 to 0.333.

Compared with AGACAGCG, CGCACGGC is higher in “PBM E-score” value: -0.104 for the first, 0.11 for the second.

First: ATATAAAC
Second: AGTCGGCC
The “PBM E-score” value of the first is lower: -0.291 for the first, 0.168 for the second.

Compared with GGGTTTAA, GTTGGCTA is lower in “PBM E-score” value: 0.0372 for the first, -0.0887 for the second.

First: ACGCGCCC
Second: AACAGATC
The “PBM E-score” value of the first is higher: 0.0801 for the first, -0.109 for the second.

First: GGGTTACC
Second: CCATTATC
The “PBM E-score” value of the first is higher: -0.0254 for the first, -0.035 for the second.

Compared with CCAGTCCG, ATAGCCTA is lower in “PBM E-score” value: 0.17 for the first, -0.127 for the second.

Compared with AGGCTTAT, ATAACGGA is higher in “PBM E-score” value: -0.105 for the first, 0.224 for the second.

First: CGTGCAAC
Second: GTCTTAGA
The “PBM E-score” value of the first is lower: -0.0298 for the first, -0.0106 for the second.

Going from AATACAGG to GCTGCTAA, the “PBM E-score” value falls from 0.0152 to 0.00882.

Going from AACTGCTC to CCTGGGGC, the “PBM E-score” value falls from -0.0532 to -0.0727.

Going from ACATGAAT to CGCTCTCC, the “PBM E-score” value rises from -0.194 to 0.00849.

First: CCCCTCCA
Second: ACGATGGG
The “PBM E-score” value of the first is higher: -0.0373 for the first, -0.088 for the second.

Going from CTATAACA to AGATTCCC, the “PBM E-score” value rises from -0.184 to 0.127.

Going from CATTTCAC to TAATCAGA, the “PBM E-score” value rises from -0.0375 to 0.012.

Going from GCCCTCAC to CTCCGCAC, the “PBM E-score” value rises from -0.191 to 0.00913.

First: CATCTGCC
Second: AAGTGATT
The “PBM E-score” value of the first is lower: 0.021 for the first, 0.0748 for the second.

Going from ATTCCTCC to CTAACGAA, the “PBM E-score” value falls from 0.198 to -0.0167.

Compared with CTGTTCGA, GGGTGAAC is higher in “PBM E-score” value: -0.156 for the first, 0.0237 for the second.

First: ATAGACCG
Second: GACTTTTA
The “PBM E-score” value of the first is higher: 0.0138 for the first, -0.18 for the second.

First: CTGTTGCC
Second: CTTCGCTC
The “PBM E-score” value of the first is lower: -0.114 for the first, -0.00314 for the second.

Compared with GGTTAATA, CAGCTGGG is lower in “PBM E-score” value: 0.244 for the first, -0.0458 for the second.

Going from CTGCCGTC to GAAATCCA, the “PBM E-score” value falls from 0.14 to -0.00848.

First: AGGGACTG
Second: ATACGCGG
The “PBM E-score” value of the first is lower: -0.22 for the first, 0.215 for the second.

Compared with GTGTTTAA, ACGATTAG is lower in “PBM E-score” value: -0.111 for the first, -0.179 for the second.

Compared with GCAAAAGA, ATAGCCCG is higher in “PBM E-score” value: -0.192 for the first, 0.11 for the second.

Compared with ATCAGATC, CAATTGTA is higher in “PBM E-score” value: 0.0105 for the first, 0.033 for the second.

First: ACAACCCC
Second: GATGGTAC
The “PBM E-score” value of the first is lower: -0.0737 for the first, 0.0948 for the second.

First: AGACTACC
Second: ATCAAACC
The “PBM E-score” value of the first is higher: 0.015 for the first, -0.00702 for the second.

Compared with GCATAGCC, AACGAGTA is lower in “PBM E-score” value: -0.0533 for the first, -0.0725 for the second.

First: CGTGGATA
Second: AGCACACT
The “PBM E-score” value of the first is lower: -0.0462 for the first, -0.036 for the second.

First: ATCCAGTC
Second: AAGCGGTC
The “PBM E-score” value of the first is lower: 0.042 for the first, 0.105 for the second.

Compared with ACGTTCAG, GCGGTACA is higher in “PBM E-score” value: -0.252 for the first, 0.0346 for the second.

Compared with ATGCGAAT, GAAAATGA is higher in “PBM E-score” value: 0.0493 for the first, 0.0976 for the second.

Going from AATAATGA to CCTTAGCC, the “PBM E-score” value rises from -0.0795 to -0.0423.

First: TCTAAAGA
Second: ACGGGCAC
The “PBM E-score” value of the first is higher: -0.015 for the first, -0.12 for the second.

Compared with AACCTTAT, AACGGATA is higher in “PBM E-score” value: -0.148 for the first, 0.439 for the second.

Going from CCAGTCAA to ACTCCGGA, the “PBM E-score” value rises from -0.126 to 0.411.

Compared with AATAGATC, CGCGAGGC is lower in “PBM E-score” value: 0.0452 for the first, 0.0155 for the second.

First: CGATTCTA
Second: CTGCCAAA
The “PBM E-score” value of the first is higher: 0.0196 for the first, -0.04 for the second.
